Measured values reported in the supplement of paper PMC6206098.
± gives the uncertainty stated by the source. Shown are siRNA guide strands that differ only in the seed, positions 2 to 7.

What was measured:
3LL = test: cell viability relative to siNT1 control; higher = less toxic; conditions: concentration: 10 nM; 96 h; Mus musculus;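 also: Luminescence-based viability of cells reverse transfected in 384-well plates with lipid-complexed siRNAs built on a non-toxic 19mer backbone whose passenger strand carries 2′-O-methyl groups at positions 1 and 2, triplicates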
H460 = test: cell viability relative to lipid-only control; HeyA8 human ovarian and H460 human lung cancer; M565 mouse liver and 3LL mouse lung cancer; siNT1 is a non-toxic control siRNA; higher = less toxic; conditions: concentration: 10 nM; 96 h; Homo sapiens
HeyA8 = test: as above; conditions: concentration: 10 nM; 96 h; Homo sapiens
M565 = test: as above; conditions: concentration: 10 nM; 96 h; Mus musculus
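For cell viability relative to lipid-only control in this document: reverse lipid transfection in 384-well plates, in triplicate, of duplexes on a non-toxic 19mer backbone with passenger strand 2′-O-methylated at positions 1 and 2, luminescence viability read-out.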

Row | Sequence | cell viability (3LL) | cell viability (H460) | cell viability (HeyA8) | cell viability (M565)
1 | UUUACGCACAUGUAAACCAAA | 77.7 ± 4.6% | 89.7 ± 6.5% | 91 ± 4.5% | 80.2 ± 19%
2 | UACAUGAACAUGUAAACCAAA | 94.2 ± 8.3% | 60 ± 3.8% | 71.1 ± 12% | 81.9 ± 13%
3 | UAACUCUACAUGUAAACCAAA | 65 ± 10% | 69.9 ± 14% | 48.7 ± 6.6% | 38.4 ± 1.5%
4 | UUCACCUACAUGUAAACCAAA | 20.3 ± 7.3% | 63.1 ± 12% | 69 ± 7.8% | 71.9 ± 5.5%
5 | UGCACACACAUGUAAACCAAA | 52.5 ± 8.2% | 48.5 ± 1.3% | 24.9 ± 0.51% | 29.3 ± 2.7%
6 | UCACAUAACAUGUAAACCAAA | 95.8 ± 12% | 30.5 ± 3.8% | 89 ± 4.2% | 74.4 ± 1.4%
7 | UCCCUAGACAUGUAAACCAAA | 105 ± 32% | 48.4 ± 7.4% | 76.8 ± 8.2% | 97.6 ± 9%
8 | UUAGGGCACAUGUAAACCAAA | 69.6 ± 2.9% | 41.3 ± 5.7% | 36.5 ± 2.5% | 27.8 ± 8.3%
9 | UCCUUGAACAUGUAAACCAAA | 98.4 ± 10% | 80.2 ± 5.6% | 84.8 ± 8.5% | 86.3 ± 13%
10 | UGUAUAAACAUGUAAACCAAA | 92.3 ± 9.1% | 74.5 ± 7.6% | 95.9 ± 7.5% | 47.9 ± 1.7%
11 | UCGCUAUACAUGUAAACCAAA | 104 ± 21% | 76.3 ± 22% | 86.2 ± 7.2% | 88 ± 8.7%
12 | UUGCGUGACAUGUAAACCAAA | 64.1 ± 4.5% | 71.9 ± 4.8% | 81.1 ± 9.2% | 51 ± 2.4%
13 | UUCUCCGACAUGUAAACCAAA | 64.9 ± 3.9% | 64.9 ± 9.3% | 90.8 ± 6.7% | 57.5 ± 6.3%
14 | UCCGGCCACAUGUAAACCAAA | 12.6 ± 4% | 34.3 ± 5% | 12 ± 1.2% | 24.1 ± 6.6%
15 | UCGAGUCACAUGUAAACCAAA | 78.5 ± 20% | 61.2 ± 8.4% | 53.4 ± 5.2% | 60.2 ± 5.9%
16 | UUCGGAUACAUGUAAACCAAA | 44.6 ± 10% | 62 ± 10% | 64.1 ± 6.7% | 68.1 ± 12%
17 | UGGGUCGACAUGUAAACCAAA | 58.9 ± 8.7% | 18.1 ± 1.1% | 24.6 ± 1.5% | 36.7 ± 0.67%
18 | UUCCUACACAUGUAAACCAAA | 25.2 ± 4.6% | 60.9 ± 4.8% | 79.6 ± 5.2% | 105 ± 20%
19 | UGGGUGCACAUGUAAACCAAA | 38.6 ± 7.4% | 7.78 ± 0.6% | 2.68 ± 0.41% | 15 ± 3%
20 | UUGCUACACAUGUAAACCAAA | 39.5 ± 7.7% | 17.3 ± 2.5% | 31.2 ± 3.5% | 87.4 ± 12%

Row | Sequence | cell viability (3LL) | cell viability (H460) | cell viability (HeyA8) | cell viability (M565)
21 | UGUAAUAACAUGUAAACCAAA | 91.6 ± 9.3% | 63 ± 3.5% | 88.2 ± 2% | 76.8 ± 9.7%
22 | UCUUUGGACAUGUAAACCAAA | 94.8 ± 16% | 54.1 ± 5.1% | 68.8 ± 6.4% | 48.1 ± 8.3%
23 | UACGACUACAUGUAAACCAAA | 88.2 ± 11% | 73.8 ± 14% | 60.5 ± 5.8% | 52.9 ± 5.1%
24 | UAGGUGAACAUGUAAACCAAA | 73.8 ± 3.7% | 67.3 ± 13% | 69.8 ± 3.3% | 39.3 ± 5.9%
25 | UGAGUCAACAUGUAAACCAAA | 98.5 ± 18% | 75 ± 2.3% | 71.9 ± 7.9% | 31.3 ± 6.3%
26 | UAUGUCCACAUGUAAACCAAA | 17.1 ± 2.6% | 42.9 ± 3.1% | 34.1 ± 6.3% | 18.3 ± 4.6%
27 | UAUUUUAACAUGUAAACCAAA | 105 ± 23% | 81.5 ± 4.9% | 96.7 ± 10% | 107 ± 15%
28 | UGAGGAAACAUGUAAACCAAA | 83.4 ± 20% | 68.4 ± 10% | 72.3 ± 4.5% | 28 ± 7.7%
29 | UCGUUGCACAUGUAAACCAAA | 50.9 ± 10% | 21.4 ± 2.5% | 3.57 ± 0.53% | 13.3 ± 0.74%
30 | UAUAUUUACAUGUAAACCAAA | 93.5 ± 17% | 66.9 ± 11% | 88.7 ± 14% | 86.6 ± 3.8%
31 | UAGAUUUACAUGUAAACCAAA | 88.7 ± 9% | 90 ± 14% | 66.3 ± 4.1% | 75.3 ± 6.5%
32 | UCCACCCACAUGUAAACCAAA | 56.7 ± 15% | 39.1 ± 6.8% | 35.3 ± 7.1% | 44.5 ± 9.5%
33 | UAGUUGGACAUGUAAACCAAA | 19.1 ± 2.3% | 47.3 ± 9.7% | 27.8 ± 0.74% | 25.7 ± 7.7%
34 | UUUUUGCACAUGUAAACCAAA | 66.3 ± 6% | 30.4 ± 0.65% | 61.8 ± 14% | 118 ± 20%
35 | UUGUCGAACAUGUAAACCAAA | 74.3 ± 11% | 62.2 ± 9.2% | 89.3 ± 2.6% | 64.6 ± 18%
36 | UUUUUAUACAUGUAAACCAAA | 93 ± 7.7% | 61.4 ± 9.1% | 82.5 ± 16% | 99.8 ± 9.8%
37 | UAUUUCAACAUGUAAACCAAA | 67.7 ± 8.4% | 84.9 ± 5.2% | 69 ± 3.6% | 76.2 ± 6.2%
38 | UUUAAGAACAUGUAAACCAAA | 92.8 ± 5.2% | 78.4 ± 17% | 102 ± 3.2% | 87 ± 13%
39 | UUGCGUUACAUGUAAACCAAA | 31.2 ± 3.3% | 82.5 ± 4.3% | 95.3 ± 8.6% | 72.8 ± 16%
40 | UAAUGAAACAUGUAAACCAAA | 119 ± 13% | 93.2 ± 14% | 94.2 ± 7.6% | 96 ± 14%

Row | Sequence | cell viability (3LL) | cell viability (H460) | cell viability (HeyA8) | cell viability (M565)
41 | UCCGUCUACAUGUAAACCAAA | 83.7 ± 17% | 48.9 ± 9% | 57.8 ± 4.2% | 17.2 ± 0.27%
42 | UCCGUACACAUGUAAACCAAA | 100 ± 33% | 56.5 ± 10% | 54.3 ± 3.9% | 94.4 ± 23%
43 | UCCGGGUACAUGUAAACCAAA | 26 ± 5.2% | 46.9 ± 4.4% | 36.4 ± 2.2% | 16.8 ± 4%
44 | UGGUACCACAUGUAAACCAAA | 49.2 ± 5.4% | 34.9 ± 1.3% | 20.9 ± 5.7% | 21.3 ± 4.2%
45 | UGUGAAGACAUGUAAACCAAA | 90.1 ± 3.7% | 58.6 ± 4.8% | 69.4 ± 0.8% | 62.8 ± 6.1%
46 | UUAGUGUACAUGUAAACCAAA | 67.8 ± 3.7% | 43.1 ± 8.7% | 37.3 ± 4% | 13.3 ± 4.9%
47 | UGCUGGUACAUGUAAACCAAA | 36.3 ± 14% | 74 ± 14% | 37.3 ± 2% | 37.5 ± 7.8%
48 | UAGUUUUACAUGUAAACCAAA | 96.5 ± 4.8% | 61.9 ± 5.1% | 64.6 ± 1.8% | 75.2 ± 9.6%
49 | UUUUUACACAUGUAAACCAAA | 93 ± 7.5% | 73.5 ± 5.6% | 95.1 ± 4% | 94.2 ± 6.7%
50 | UCGUCUGACAUGUAAACCAAA | 92.1 ± 12% | 73.5 ± 16% | 68.4 ± 8.1% | 46.7 ± 3.7%
51 | UGCCUUUACAUGUAAACCAAA | 40.2 ± 12% | 47.1 ± 3.9% | 16.4 ± 2.2% | 9.63 ± 1.8%
52 | UUUAGCAACAUGUAAACCAAA | 95.9 ± 6.1% | 87.4 ± 14% | 98 ± 4.8% | 83.7 ± 5.5%
53 | UUAAACUACAUGUAAACCAAA | 94.1 ± 18% | 69.8 ± 17% | 89.1 ± 2.8% | 109 ± 11%
54 | UACCUCAACAUGUAAACCAAA | 68.8 ± 5.9% | 46.6 ± 5.3% | 82.6 ± 8.3% | 39.3 ± 3.8%
55 | UUCAGUAACAUGUAAACCAAA | 94.2 ± 7.9% | 75.7 ± 13% | 91.5 ± 12% | 88.7 ± 5.8%
56 | UCCUUUCACAUGUAAACCAAA | 86.4 ± 18% | 57.7 ± 3.9% | 46.3 ± 2.8% | 72 ± 13%
57 | UAUCUGUACAUGUAAACCAAA | 95.7 ± 6.9% | 71.7 ± 12% | 82 ± 5.8% | 93.7 ± 24%
58 | UUCGAGCACAUGUAAACCAAA | 66.7 ± 17% | 39.6 ± 4% | 14.6 ± 0.48% | 64.6 ± 6.4%
59 | UUAGCGCACAUGUAAACCAAA | 84.9 ± 5.6% | 82.3 ± 6.9% | 82.2 ± 1.8% | 59 ± 3.9%
60 | UACUGCGACAUGUAAACCAAA | 92.7 ± 13% | 102 ± 10% | 87.2 ± 7.2% | 68.8 ± 5.5%
